Drawing on the RNAGym collection of RNA variant scans (doi:10.7554/elife.90254), this text covers self-cleavage for 167 variants.

Read counts are not given, so values of variants with three or more changes are uncertain.

Sequences and labels used below:
B1: LINE1-full (parent)
chain: UACGUAGGUGGUUUUCCCCUGAUAGUGCUAAGGGGGCCUGGAAGUUUGGACUGGGCAGAGCUCAACACAGCGUGGCAAAGUGGCUGUGGCUAGACUGCCUCUCUGGAUUCCUCGUCACUCAGCAGGGCAUCUCUGAGAGAAAUGCC

Variants of B1 are the subject of the data set. As to the kind of experiment: self-cleavage, relative activity (ratio to wild type); higher = more cleavage; in vitro, sequencing; the parent is a self-cleaving ribozyme.
For C71U U87C A94U A138G, the self-cleavage amounted to 0.06.

In the case of A67U U96A U115C, the self-cleavage was found to be 0.05.

For the variant U73A U81C A129G, the self-cleavage came to 1.51.

Regarding A69G U96A U119C A136G, the self-cleavage is 0.09.

Turning to U73A A78G U81C A138G, the self-cleavage was 0.52.

Consider U73A A107G U130A A141U, for which the self-cleavage amounted to 2.11.

As to A67U A77G G80A U81C U87C, the self-cleavage stood at 0.14.

In the case of C68U A79G A136U, the self-cleavage stood at 0.12.

In the case of A65U U73C A142G, the self-cleavage is 0.

As for A67U G139U U143A, the self-cleavage was found to be 0.13.

For A67U A69U C113U, the self-cleavage came to 0.02.

For the variant U73C A79G C133U A136G, the self-cleavage amounted to 1.53.

For A69U U85C A138G, the self-cleavage was 0.09.

For A69G A138U A141G, the self-cleavage was 0.74.

For the variant A69U U119C A140G, the self-cleavage stood at 0.11.

Consider A69G U96C G127A, for which the self-cleavage is 0.

Take G75A U100C U143C: the self-cleavage is 1.05.

Consider U73C A79G A124G, for which the self-cleavage was 0.

In the case of A67G U91C U134A, the self-cleavage stood at 0.14.

Consider A69C U96C U102C, for which the self-cleavage came out at 0.24.

Consider A69C U85C U102C, for which the self-cleavage was 0.48.

Turning to A67U U115C A138G, the self-cleavage turned out to be 0.22.

For the variant A65G G75A U100C, the self-cleavage amounted to 0.04.

As for G70U A78C A107G, the self-cleavage came out at 0.13.

For A65G U109A A141G, the self-cleavage turned out to be 0.11.

As to C66U A107G U143C, the self-cleavage was 0.07.

Take U73A G97A A140U: the self-cleavage came to 0.21.

Turning to A65G U96C U119C G137A, the self-cleavage was 0.18.

Regarding A65U A94G U143C, the self-cleavage worked out at 0.03.

C66U U115C A136G A142G: the self-cleavage came to 0.06.

For the variant A67U U96A A129U G144A, the self-cleavage was found to be 0.18.

As to C71U U85A A142G, the self-cleavage was 0.06.

In the case of G72A U100C U108C, the self-cleavage was determined as 2.27.

As for A65U A79G A124G, the self-cleavage came out at 0.07.

Take A69G G74A U96C: the self-cleavage came to 0.05.

In the case of A69U U73C U108G, the self-cleavage is 0.

Turning to A65U U102C U143C, the self-cleavage was 0.25.

As for A69G A79G G80A U108C U115C, the self-cleavage was 0.

In the case of U73A G88A A117G G122U A136G, the self-cleavage is 0.03.

Regarding A67U U130G U132G, the self-cleavage is 0.11.

Regarding G72A U73C A142U, the self-cleavage came out at 1.42.

On to C71U U96G C99A U115C, for which the self-cleavage worked out at 0.03.

A65U U81A A141G A142G: the self-cleavage stood at 0.38.

U73A A107G A136U: the self-cleavage was determined as 2.3.

Regarding G70A U112A A138G, the self-cleavage was found to be 0.18.

For A67G A78G U115A A124G A138U, the self-cleavage turned out to be 0.73.

For G75A U119C A129U, the self-cleavage amounted to 1.39.

In the case of U73A A94G U100C, the self-cleavage turned out to be 0.93.

A67G A107C A141G: the self-cleavage amounted to 1.31.

With A67G U100C U132C, the self-cleavage is 0.97.

As to A69U G97A U104C U130C, the self-cleavage came to 0.03.

A69U C71A A141G: the self-cleavage was found to be 0.01.

For the variant U73C A94U U108A, the self-cleavage stood at 0.4.

In the case of C66G A67G U85A A142G, the self-cleavage is 0.05.

For the variant U73C A136G A140G, the self-cleavage turned out to be 1.07.

For the variant U73C U85C G86C U96A, the self-cleavage came out at 0.04.

For A67U C98U U143C, the self-cleavage amounted to 0.01.

Turning to U73C C95A U100C, the self-cleavage is 0.28.

For A65G U96A U112C U115A A138U, the self-cleavage was 0.

Turning to A69G U73A A136G, the self-cleavage was 0.32.

In the case of U73A A79G C118U U130C, the self-cleavage turned out to be 1.39.

Regarding A65U U96A A121G, the self-cleavage was determined as 0.02.

In the case of U73C U87C A136G, the self-cleavage was determined as 0.22.

Turning to A67U U73A A94G A107G, the self-cleavage was 0.25.

On to A67U G82A G126U, for which the self-cleavage was 0.21.

On to U73A U100C U115A, for which the self-cleavage was 2.11.

On to A67G A78G U87A, for which the self-cleavage is 0.

Regarding A67C G75A A77G, the self-cleavage was 0.07.

Take U73A G74U A94G: the self-cleavage came out at 0.27.

Take U73A U109C C118U: the self-cleavage was 1.11.

As for A65G U81G A136U, the self-cleavage came to 0.05.

For U73A A79G U87A U130C, the self-cleavage worked out at 0.1.

Take U73A A77U A129G U134C: the self-cleavage worked out at 0.43.

A65U U91C A117G U130A U134G A141G: the self-cleavage worked out at 0.44.

Take A67U U73C A136G: the self-cleavage was determined as 0.36.

As for U73C U112C U130A A138U, the self-cleavage was found to be 1.75.

With A69U A117U A129U, the self-cleavage was 0.07.

As for U73A U100C C111A, the self-cleavage was determined as 2.84.

For the variant A69U A121G A141G, the self-cleavage came to 0.

On to A67C G93A U104A A142C, for which the self-cleavage came to 0.04.

On to U73A A78G U96A, for which the self-cleavage turned out to be 0.03.

For the variant A69G G74A U108C U130C, the self-cleavage worked out at 0.65.

For the variant U73C A124G U132C, the self-cleavage was 2.45.

For C71A G75C U85A, the self-cleavage was determined as 0.

With A67G U85C C99U A129U A138G A142G, the self-cleavage was 0.04.

In the case of A69G U108G U143C, the self-cleavage worked out at 0.

For the variant A69G U91C U102A, the self-cleavage was 0.26.

For the variant U73C G88U G89A U112A A117G A121G, the self-cleavage was 0.03.

For G74A U102C G127A U134A A141G, the self-cleavage is 0.52.

Regarding A69C U104A U132G, the self-cleavage came out at 0.06.

Consider U73C G88A U112C, for which the self-cleavage was found to be 0.09.

Take A67G U73A A124U U130C: the self-cleavage was 0.48.

With C68G A94C U143C, the self-cleavage is 0.

With C71U A138G A142G, the self-cleavage was found to be 0.96.

On to C71U A77G U96A U134A, for which the self-cleavage turned out to be 0.03.

Turning to A65G U108A U132A, the self-cleavage is 0.1.

On to A65G U112C A136G, for which the self-cleavage is 0.17.

As for A67G C76U U100C, the self-cleavage was 0.92.

As to A69G A107G A138U, the self-cleavage was 1.41.

On to C71A A77G A117C, for which the self-cleavage stood at 1.9.

Take A67G A77G U87A: the self-cleavage is 0.08.

U73A U87A U119C: the self-cleavage was found to be 0.04.

Consider A65G G83U A124G C128U, for which the self-cleavage was found to be 0.05.

In the case of U73G U109C A141G, the self-cleavage turned out to be 0.9.

Turning to A65G U96A C110A, the self-cleavage came to 0.01.

Consider A65U U100C U132C A138G, for which the self-cleavage stood at 0.3.

Take U73A A77C U109C: the self-cleavage was 0.92.

As for G75A U104C U108C, the self-cleavage worked out at 1.52.

Consider A69G A77G U134A, for which the self-cleavage turned out to be 0.

For A69G A94U A136G, the self-cleavage stood at 0.04.

For the variant A69G A79G A140G, the self-cleavage turned out to be 0.

Take A65U U91A U102A: the self-cleavage was determined as 0.14.

Turning to A65G U87A A141G, the self-cleavage was 0.03.

Consider C68A A78G U87C, for which the self-cleavage stood at 0.06.

As to A65G G70U U104C U115C C123U G125U U130C, the self-cleavage amounted to 0.

In the case of G74A U134C A142G, the self-cleavage is 0.97.

As for A67U U91C U104C, the self-cleavage came out at 0.

A69G U130A U143C: the self-cleavage was determined as 0.96.

In the case of A69G A77U U96A U134C, the self-cleavage is 0.09.

Take A67G A77G C128U A136G A138U: the self-cleavage came out at 0.61.

For C66U U87C U102C, the self-cleavage was found to be 0.

Turning to A67U A94C U108C, the self-cleavage was 0.

As to A65G U73G A121U, the self-cleavage was 0.06.

Turning to A65U U102C U119C A121C, the self-cleavage stood at 0.

For the variant A69G U73A A92G, the self-cleavage is 0.33.

As to U73C G89A U100C U134C, the self-cleavage was found to be 0.06.

For G72A U91C U102C, the self-cleavage was 0.34.

As to U73A U102C G105A A121U A124U, the self-cleavage amounted to 2.06.

G75A G126A A136G A142G: the self-cleavage is 1.33.

Consider U73C A140G U143A, for which the self-cleavage turned out to be 1.76.

For A69G A121U C145A, the self-cleavage was found to be 0.94.

On to A65G U87A A107G, for which the self-cleavage came out at 0.06.

For the variant A69G U73C C95U, the self-cleavage was found to be 0.25.

With U73C U132C A140U, the self-cleavage is 2.49.

For A69G U81C A94U, the self-cleavage was 0.34.

Consider A69G A129U U132A A142G, for which the self-cleavage worked out at 0.

U73A C116A A117G A121U: the self-cleavage came to 0.37.

For the variant A67U A121G A141U, the self-cleavage was determined as 0.28.

Turning to A65G U85A A136G, the self-cleavage amounted to 0.13.

With A65G U85A A136U, the self-cleavage came to 0.02.

Consider A65G U100A A129G A141G, for which the self-cleavage worked out at 0.

Regarding A69U C71U U102C U112C, the self-cleavage was found to be 0.02.

Take A69G U100A U108C: the self-cleavage came to 0.6.

With A67C U73C U96A, the self-cleavage was determined as 0.03.

Regarding A69G U81A C120U U143C, the self-cleavage was found to be 0.49.

As to A69G U73A A140U, the self-cleavage was 0.3.

Regarding C66U A79G A129G, the self-cleavage turned out to be 0.

In the case of A69G A107U G127A A136C, the self-cleavage came out at 0.23.

Take A65G U112C U130C: the self-cleavage came out at 0.15.

G70U A107C A124U A142G: the self-cleavage came to 0.06.

On to U73C A78G A138G, for which the self-cleavage was 1.97.

In the case of G74A U109C C118A A129U, the self-cleavage worked out at 0.79.

Consider A69G U112C U134C, for which the self-cleavage worked out at 0.

As for A67G U109A A140G, the self-cleavage was 0.29.

Consider U73C U91A A117U A142G, for which the self-cleavage was 1.15.

On to A67G G72A A79U U100A, for which the self-cleavage amounted to 0.34.

Consider A65G U115A C133U, for which the self-cleavage worked out at 0.04.

On to A65U C99U A138G, for which the self-cleavage came to 0.2.

In the case of U73A U96A U119C, the self-cleavage worked out at 0.04.

Regarding A65G U73C A121G, the self-cleavage stood at 0.

On to U73A A77G C90A U130C, for which the self-cleavage was found to be 0.04.

For C68U U73C A77G A78U U115A A117C A140G, the self-cleavage worked out at 0.23.

Regarding C71U U100C G114C, the self-cleavage was found to be 1.98.

In the case of C71U A121G U143C, the self-cleavage was 1.91.

Take A67G U85C A117G: the self-cleavage came out at 0.

Consider A69G U91C U132A, for which the self-cleavage turned out to be 0.

On to G75C G93A U119C, for which the self-cleavage was 0.01.
